The values that follow come from the RNAGym collection of RNA variant scans (doi:10.1093/nar/gkz1192).

B1: CPEB3 Ribozyme (parent)
chain: UAACAGGGGGCCACAGCAGAAGCGUUCACGUCGCAGCCCCUGUCAGAUUCUGGUGAAUCUGCGAAUUCUGCUGUAUAUCUC

The source gives no read counts; variants with many changes may rest on few reads.

In this data set the parent is B1. Nature of the data set: self-cleavage, relative activity (ratio to wild type); higher = more cleavage; in vitro, sequencing. The method, boiled down: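 Relative activity compares each variant's cleaved/total read fraction with that of the unmutated ribozyme. To get these fractions, barcoded CPEB3 ribozyme libraries from rounds of error-prone PCR were transcribed with T7 RNA polymerase for 5 hours at 37°C and then given 15 min of DNase I treatment before EDTA was added. The RNAs were reverse transcribed with template switching and sequenced on Illumina, and DNA sequencing linked barcodes to variants. A minimum of 5 reads applied, and three batches were averaged.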
As to G42A U49C U54C, the self-cleavage was 0.48. As for U41C U72C U76C, the figure is 1.11.

In the case of U43A A64G U76A U80C, the self-cleavage amounted to 1.03. Take U43A A57G G63U A64U U72C: the self-cleavage was 0.32.

On to U43C A45C A56G U60C U69C, for which the self-cleavage is 0.26. Take U43C A45G U66A U67C: the self-cleavage turned out to be 0.23. For U41C U51C U72C U80A the value was 1.17. As to U41C G52A A56G A77G, the self-cleavage is 1.08.

Turning to G42A U66C U69C U78C, the self-cleavage came out at 0.06. Take U43C A57G U72A: the self-cleavage worked out at 0.26. As for U41C U54C A56G U69C, the figure is 0.16; as for U43A G53A U66C, 0.17; as for U43C U51C U60C, 0.25. For U41G U48A A64G U76A U80C the value was 0.09; for U41G U48C A64G, 0.18; for G42A U58C U67A, 0.07. As for U43C A45G U78A, the figure is 0.39; as for U41C U51C A56G A64G, 0.36. With U41C U49C U54A G63U U67C U76C, the self-cleavage was 0.15. As for U43C A65U U69A, the figure is 0.16. For U43C A45U U60A A77U U80C the value was 0.97. Take U41C U51C U66C: the self-cleavage is 0.54. As for U41C U43C U72C U80C, the figure is 0.72. As for U41C U69A U72A, the figure is 0.39. As for U43A A56G U69C U80C, the figure is 0.34. Consider G42A A47G A57U U72A, for which the self-cleavage is 0.08. For the variant U43C U51A A64G, the self-cleavage amounted to 0.4.

U41C U60A G61U U66G U78A: the self-cleavage came to 0. For U43A A57G U58A C68U U72C the value was 0.21. As for U43C A56U U69A, the figure is 0.17. For G42C U43C U49C A56U the value was 0.06. In the case of G42A A65U U66G, the self-cleavage is 0.18. For U41C U49C U80A the value was 0.81; for U43C A45G A57G, 0.33. For U43A A64G U78G the value was 1.11; for U41C U51C U54G U58C U60C, 0.35; for U41C U43C U54C U69C, 0.16. For U43C G52A U74A the value was 1.16; for U43C A45C U74C, 0.5. Turning to U41C G53C U69A, the self-cleavage came to 0.55. For U43C U54C U66A the value was 0.2; for U43C A45U A47C C50A, 0.1; for U41C U54C U69C U80C, 0.39.

U41C U58A C62A: the self-cleavage came out at 0.24. U43A C59U A64U U72C A75G: the self-cleavage turned out to be 0.32. Take G42C U49A U66C A77C: the self-cleavage came out at 0.23. As for U43C U48C U51A, the figure is 0.19; as for U43A A64U U78G, 0.51. As for U43A A47G U66C, the figure is 0.57; as for U43C A45U A47G C50A U67A, 0.15. As for U41C U54A U67A U69C U78C, the figure is 0.44; as for U43A A56G U78C, 0.86; as for U41G U49C U51A A57G, 0.15.

U41C U51G A65G A75U: the self-cleavage was found to be 0.31. As for U41G U49C G61A, the figure is 0.08; as for G42A U49C U69A U78C, 0.16; as for U41C U67C C81U, 0.26. Regarding U41C U48C U58C, the self-cleavage came out at 0.39.

In the case of U41G A47U U72A, the self-cleavage is 0.21.

For the variant U41C U58C U76C, the self-cleavage is 0.75. U41G U49C U54C A57G: the self-cleavage is 0.35.

With U41C U51C A56G, the self-cleavage was determined as 0.75. G42A U43A A45G U51C A75U U78C: the self-cleavage was 0.07.

For U43A G70A U80C, the self-cleavage was 0.49.

As for U43A U72C U74C U80C, the self-cleavage was 1.26. For U43A A45G U67C C68A the value was 0.27. Consider U41C G73A U78C, for which the self-cleavage was 1.28. For U41C U43C U49C U74C the value was 0.27; for U43A U54C U80C, 1.19; for U43C U49C U51A G70C, 0.13. Consider U41C U66C U78A, for which the self-cleavage was 0.36. For G42A U60A U69A the value was 0.13; for U41C U43C A75G, 0.43; for U41C G55U U67C, 0.

On to U43C A47G A65U, for which the self-cleavage was found to be 0.18. As for G42A G52U A57G A64U C68A, the figure is 0.16; as for U43A U48A U72C, 0.6; as for U43C U49A U76C U78C, 0.1. As for U41G A64U U78C, the figure is 0.24.

Turning to G42A G46A A47U A65G U69A U78A, the self-cleavage was found to be 0.1. U41G U48C A75U: the self-cleavage was 0.28. As for U43A U60A U80C, the figure is 0.27. As for U41C U67A G73A, the figure is 1.13; as for U41C U76C U78A, 1.28; as for U43C A45U G55A, 0.24. For U43C A45U U69G the value was 0.08. For the variant U41C U51C U54C, the self-cleavage is 0.89. For U41C U48C A64G U74C A75G the value was 0.27. As for U43C U49C U51C A56U, the figure is 0.15; as for U43A U72C U80C, 1.19; as for U41G A45G U49A U67A, 0.14. As for U41C U54C A57G U60C U76C, the figure is 0.11; as for U43C A45G U74C, 0.8; as for U43A A45G U54A, 1.1.

Consider U43C A56G U67C U72C, for which the self-cleavage turned out to be 0.16. As for U43C U49C C59U, the figure is 0.1. As for U43C A45U U60A A64G U69A U72A, the figure is 0.07. As for U41C U54C A64G U67C, the figure is 0.12; as for U41G U43C A45U C62U, 0.47; as for U41C G61A A77G, 0.43. U43A A47G A56G U80C: the self-cleavage worked out at 0.47. Consider U41C U49C A56G U60C A75G U80A, for which the self-cleavage was 0.44. For U41G G52A U67C the value was 0.21; for U41C U43C A57C A64U, 0.06. As for U41C U58A U67C, the figure is 0.36. As for U43C A45U A47C A57G U66C U78A, the figure is 0.06. U43A A47G U51A A75U: the self-cleavage turned out to be 0.69. G42U U43A A56U: the self-cleavage was found to be 0.09. For U41C U51A U54C the value was 1.14. On to U43A U60C A64U, for which the self-cleavage is 0.42. For U43C A47G A64C the value was 0.21. As for U41C U51C A57G G61C, the self-cleavage was found to be 0.47.

U41C U49C A64U U66C: the self-cleavage was 0.08. As for U43A U58C A64U, the figure is 0.49; as for U43A U60C U72A U78C, 0.57.

Consider U43A U60C U66A U80C, for which the self-cleavage is 0.25.

As to U43C U51A U60A, the self-cleavage was found to be 0.32.

Consider U41G A45C C62A A64G U72C A75G U78C, for which the self-cleavage was 0.05.

Turning to U41G U49C U58A, the self-cleavage amounted to 0.2. For U41C U60C A64C the value was 0.19; for U41C U67G U74C, 0.46; for U43C A45G A77C, 0.2.

U43C A45G A77G: the self-cleavage stood at 0.46. With U41C G55U U78A, the self-cleavage came to 0.69. For U41C U69C U80C the value was 0.53; for U43C A64G U72C, 0.5. As for U41C U51A U54A U67C C71A, the figure is 0.71; as for U41C U49C U76C, 0.51. As for U43C U48C A64G U67C U76C C79G, the figure is 0.07; as for U41C U49C C50A U80A, 1.16. U41C U43A U72G: the self-cleavage worked out at 0.44. For U41C U43C A47G U49A the value was 0.16; for U43C U48C A75C, 0.15; for U41C U43A G55U, 0.58. As for U43A U60A U72C, the figure is 1.1. As for U41C U69G U80C, the figure is 0.73; as for U41C U43C U54C U78A, 0.16; as for G42U U51A U60A, 0.7. Take U41C U48G A56G U58C: the self-cleavage amounted to 0.6. As for U41C G55A U72C, the self-cleavage amounted to 0.98.

Consider G42A C68U U72C, for which the self-cleavage was determined as 0.15.

In the case of U41C U72A G73U A77C, the self-cleavage stood at 1.31.

Consider U43C A64G U72C U76A, for which the self-cleavage was 0.67. For U41C U43C A57G the value was 0.24; for U43C A56G U78A, 0.25; for U43A U48C U67C, 0.3. As for U43C U51C U67A U72C, the figure is 0.32; as for U41C U43C U72A A77G, 0.42. As for U41C U49C A64G, the figure is 0.2. In the case of U43C A45G U58C U67C, the self-cleavage was 0.16.

Regarding G42A U54C U60C, the self-cleavage was 0.15. For U43C U51C A56G U60C the value was 0.12; for U43C G52C U58C U69C, 0.17.

U43C A47G C71A: the self-cleavage was 0.27.

Take U41C U54C A64G: the self-cleavage amounted to 0.68. For U43A U54A A64U the value was 0.57; for U43A U54A A65G, 0.74.

U41C U72C U80C: the self-cleavage was 1.31. For U43A U74C A75G the value was 1.2. For U43C A47G U60A C62U A64C, the self-cleavage stood at 0.16. For U43C G53A C62U A65G the value was 0.22; for U43A G61A U78A, 0.67; for U41C U48C U74C, 1.08. For U43C A45G U48C G53U U60A U69C G73A the value was 0.15; for U41C U48C U49C, 0.18. For U41G A45G U54C the value was 0.44; for U43C A47G U49C, 0.08.
